{
  "source": "PubChem BioAssay AID624417",
  "about": "(National Center for Advancing Translational Sciences (NCATS), 2012)",
  "note": "Screen size: about 410,000 compounds; about 6,400 (1.6%) were called active. This list was built around the results that the source calls inconclusive (neither active nor inactive); the mix of calls is not that of the screen. Calls follow the shape of the dose curve; as a rule, active = well fitted inhibition curve with a large enough effect; inconclusive = small, poorly fitted or top-dose-only effect; inactive = no such curve, though single readings can be large or run the other way. No potency is given beside an inconclusive call; the fits are too rough. % is scaled to controls: 0 for no effect and ±100 for the full control effect; potency is read from the fitted curve at half-maximal effect; tags tell the direction and shape of the fitted curve.",
  "data": [
    {"biological_target": "Glucagon-like peptide 1 receptor (Homo sapiens) (UniProt P43220)", "sequence (P43220 whole entry, looked up)": "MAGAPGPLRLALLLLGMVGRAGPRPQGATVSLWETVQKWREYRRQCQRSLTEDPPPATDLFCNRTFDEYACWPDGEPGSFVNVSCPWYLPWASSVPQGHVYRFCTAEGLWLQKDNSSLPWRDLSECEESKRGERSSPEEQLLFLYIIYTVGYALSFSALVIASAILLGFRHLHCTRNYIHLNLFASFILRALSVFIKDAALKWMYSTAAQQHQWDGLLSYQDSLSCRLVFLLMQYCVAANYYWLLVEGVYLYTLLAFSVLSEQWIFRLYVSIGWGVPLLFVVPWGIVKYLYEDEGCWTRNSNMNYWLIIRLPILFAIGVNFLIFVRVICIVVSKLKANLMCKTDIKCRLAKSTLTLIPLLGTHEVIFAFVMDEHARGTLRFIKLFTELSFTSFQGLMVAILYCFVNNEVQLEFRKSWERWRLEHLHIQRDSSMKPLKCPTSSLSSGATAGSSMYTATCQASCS", "test": "qHTS of GLP-1 Receptor Inverse Agonists (Inhibition Mode); also: nearly all actives have a fitted effect of over 55% in size", "details": "HEK293 GLP-1R CRE-luciferase, luminescence, 24 h, GLP-1R form is constitutively active; activity change, negative = inhibition: at 38.3 µM (top of the series) unless noted", "method_in_brief": "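Inverse agonism was detected as reduced cAMP-driven luciferase luminescence after 24 h compound treatment. The cells were HEK293 clones expressing constitutively active human GLP-1R with the reporter. Reporter-only and GPR119 cell lines served as counterscreen controls.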", "values": [
      {"smiles": "COc1ccc(C(=O)NNC(=O)C2CC=CCC2)cc1", "note": "(stereo unspecified)", "activity change, negative = inhibition": "inactive: 7.9%"},
      {"smiles": "CC(=O)Nc1ccc(-c2cc(C(=O)O)c3ccccc3n2)cc1", "Potency": "inconclusive [inhibitor, single point]"},
      {"smiles": "Cc1ccc(CNC(=O)CCc2ccc(S(=O)(=O)NCC(C)C)cc2)cc1", "Potency": "inconclusive [inhibitor, single point]"},
      {"smiles": "CCCCN(CCCC)c1cc(C)nc(-c2ccccc2O)n1", "Potency": "inconclusive [inhibitor, partial curve, poor fit]"},
      {"smiles": "CCOc1ccc(CC(=O)Nc2c(C(=O)Nc3ccc(OC)cc3OC)oc3ccccc23)cc1", "activity change, negative = inhibition": "inactive: 8.32%"},
      {"smiles": "Cc1ccc(S(=O)(=O)c2cn(CC(=O)Nc3ccccc3C)c3cc4c(cc3c2=O)OCO4)cc1", "activity change, negative = inhibition": "inactive: 2.36%"},
      {"smiles": "Cc1cc2c(cc1S(=O)(=O)N(C)CC(=O)Nc1ccc(C#N)cc1)OCC(=O)N2", "activity change, negative = inhibition": "inactive: -2.55%"},
      {"smiles": "NS(=O)(=O)c1ccc(CCNC(=O)c2ccc3nc(CCc4ccccc4)oc3c2)cc1", "activity change, negative = inhibition": "inactive: 12.8%"},
      {"smiles": "CN(C)/C=C1\\C=C2C(=O)c3ccccc3N2C1=O", "activity change, negative = inhibition": "inactive: -5.83%"},
      {"smiles": "CN(C(=O)COC(=O)/C=C/c1ccc(C(F)(F)F)cc1)c1c(N)n(Cc2ccccc2)c(=O)[nH]c1=O", "activity change, negative = inhibition": "inactive: -4.82%"},
      {"smiles": "CC(C)(C)c1csc(NC(=O)Cn2c(=O)oc3ccccc32)n1", "Potency": "inconclusive [inhibitor, partial curve, poor fit]"},
      {"smiles": "COc1ccc(-c2cc(NC=O)c3ncc(-c4ccc(C(C)=O)cc4)n3c2)cc1OC", "Potency": "inconclusive [inhibitor, single point]"},
      {"smiles": "COc1cccc(C(=O)N2CCN(C(=O)c3cccc4ccccc34)CC2)c1OC", "Potency": "inconclusive [inhibitor, partial curve, poor fit]"},
      {"smiles": "O=c1oc2ccccc2nc1/C=C(\\O)c1ccccc1", "activity change, negative = inhibition": "inactive: -11.3%"},
      {"smiles": "COCCN(C(=O)C1CC(=O)N(Cc2ccccc2)C1)c1nc(-c2ccc([N+](=O)[O-])cc2)cs1", "note": "(stereo unspecified)", "Potency": "inconclusive [inhibitor, single point]"},
      {"smiles": "CC(C)(C)[C@H]1COC(=O)[C@@H](Cc2ccc(F)cc2)C/C=C\\C[C@@H](CC(=O)N[C@@H](CO)Cc2ccccc2)C(=O)N1", "Potency": "inconclusive [inhibitor, partial curve, poor fit]"},
      {"smiles": "C=CCNC(=O)C1CC1(c1ccc(C)cc1)c1ccc(C)cc1", "note": "(stereo unspecified)", "Potency": "inconclusive [inhibitor, single point]"},
      {"smiles": "Cc1ccc(NC(=O)Cc2nc(COC(=O)Cc3cccc(C(F)(F)F)c3)cs2)cc1", "Potency": "inconclusive [inhibitor, single point]"},
      {"smiles": "Cc1sc2nc(CSc3ccccc3)nc(N3CCN(C)CC3)c2c1C", "Potency": "inconclusive [inhibitor, partial curve, poor fit]"},
      {"smiles": "COc1ccc(OC)c(/C=N/NC(=O)CCc2c(C)n[nH]c2C)c1", "activity change, negative = inhibition": "inactive: 19.7%"},
      {"smiles": "CC(CNC(=O)CN1C(=O)COc2ccc(S(=O)(=O)N3CCCCCC3)cc21)c1ccccc1", "note": "(stereo unspecified)", "Potency": "inconclusive [inhibitor, partial curve, poor fit]"},
      {"smiles": "COc1ccc(CCNC(=O)c2cccc(-n3cnc4cccnc43)c2C)cc1OC", "activity change, negative = inhibition": "inactive: 6.97%"},
      {"smiles": "Cc1cccc(NC(=O)c2ccc(C3SCC(=O)N3CCc3ccccc3)cc2)c1C", "note": "(stereo unspecified)", "Potency": "inconclusive [inhibitor, full curve, poor fit]"},
      {"smiles": "S=c1nn[nH]n1C12CC3CC(CC(C3)C1)C2", "activity change, negative = inhibition": "inactive: -19.2%"},
      {"smiles": "CC(C)CNC(=O)c1ccccc1NC(=O)c1ccc(CSc2ccccc2)cc1", "Potency": "inconclusive [inhibitor, single point]"},
      {"smiles": "COc1ccc(N2C(=O)CS(=O)(=O)C23C(=O)N(Cc2ccc(F)cc2)c2ccc(C)cc23)cc1", "note": "(stereo unspecified)", "activity change, negative = inhibition": "inactive: 3.41%"},
      {"smiles": "COc1ccccc1CNC(=O)CSc1nc2nc(C)c(Cc3ccccc3Cl)c(C)n2n1", "activity change, negative = inhibition": "inactive: -6.86%"},
      {"smiles": "CCCCN(C=O)c1c(CC)nc2c(OCC3CCCCC3)cccn12", "Potency": "inconclusive [inhibitor, single point]"},
      {"smiles": "O=C(CCC1CCCN(Cc2ccncc2)C1)NCc1ccc(F)c(F)c1", "note": "(stereo unspecified)", "Potency": "inconclusive [inhibitor, partial curve]"},
      {"smiles": "O=C(CC1Nc2cccc3cccc(c23)NC1=O)Nc1ccccc1", "note": "(stereo unspecified)", "Potency": "inconclusive [inhibitor, single point]"},
      {"smiles": "CCc1ccc(NC(=O)C/C(C)=N/NC(=O)COc2ccc(C)cc2Br)cc1", "Potency": "inconclusive [inhibitor, partial curve, poor fit]"},
      {"smiles": "COc1ccc(CCCNC(=O)C2CCC(=O)N(Cc3ccc(Cl)cc3)C2)cc1", "note": "(stereo unspecified)", "Potency": "inconclusive [inhibitor, partial curve, poor fit]"},
      {"smiles": "CN1CCc2c1nc1ccccc1c2N=C1CCCN1Cc1ccccc1", "Potency": "inconclusive [inhibitor, single point]"},
      {"smiles": "CCOC(=O)c1sc(NC(=O)c2ccc(C)s2)cc1C", "Potency": "inconclusive [inhibitor, single point]"},
      {"smiles": "CCOc1cc(CNC(=O)c2ccccc2NC(=O)c2nsc3ccccc23)ccc1OC", "activity change, negative = inhibition": "inactive: -8.02%"},
      {"smiles": "Cc1ccc(C(=O)N(Cc2ccco2)Cc2ccco2)cc1", "activity change, negative = inhibition": "inactive: -8.8%"},
      {"smiles": "CCOc1ccc(Cc2nnc(SCC(=O)Nc3ccccc3)n(N)c2=O)cc1", "Potency": "inconclusive [inhibitor, partial curve, poor fit]"},
      {"smiles": "Cc1ccc(C(C)C)c(OCC(=O)Nn2c(C)nc3ccccc3c2=O)c1", "Potency": "inconclusive [inhibitor, partial curve, poor fit]"},
      {"smiles": "CCOc1ccc(NC(=O)Cn2cc(C(=O)c3cccs3)c3ccccc32)cc1", "Potency": "inconclusive [inhibitor, partial curve, poor fit]"},
      {"smiles": "O=C(NCc1ccc(F)cc1)C(=O)NCC1OCCN1S(=O)(=O)c1ccc2c(c1)OCCO2", "note": "(stereo unspecified)", "activity change, negative = inhibition": "inactive: -0.737%"},
      {"smiles": "Cc1cc(C)nc(N(C#N)CC(=O)c2ccccc2)n1", "activity change, negative = inhibition": "inactive: 0%"},
      {"smiles": "COc1cccc(/C=C2\\Oc3cc(OCC(=O)N4CCCCC4)ccc3C2=O)c1OC", "Potency": "inconclusive [inhibitor, single point]"},
      {"smiles": "O=C(CNC(=O)c1ccco1)N/N=C/c1ccc(O)cc1O", "Potency": "inconclusive [inhibitor, single point]"},
      {"smiles": "CCC(C)Oc1ccc(C(=O)Nc2ccc(CN3CCOCC3)cc2)cc1", "note": "(stereo unspecified)", "Potency": "inconclusive [inhibitor, partial curve, poor fit]"},
      {"smiles": "O=C(CCSc1ccccc1)Nc1ccccc1Br", "Potency": "inconclusive [inhibitor, single point]"},
      {"smiles": "CN(C)S(=O)(=O)c1ccc(C(=O)Nc2ccccn2)cc1", "activity change, negative = inhibition": "inactive: 6.49%"},
      {"smiles": "O=C(Cn1c(-c2cccs2)cc2ccccc21)N1CCN(c2ccccc2F)CC1", "Potency": "inconclusive [inhibitor, partial curve, poor fit]"},
      {"smiles": "COc1cc(C(=O)COC(=O)c2ccc3c(c2)OCCO3)cc(OC)c1OC", "activity change, negative = inhibition": "inactive: -20%"},
      {"smiles": "Cn1c(SCCN2CCCC2)nnc1C1CCN(S(=O)(=O)c2cccc(F)c2)CC1", "Potency": "inconclusive [inhibitor, partial curve, poor fit]"},
      {"smiles": "Cc1cc(C)c(C)c(S(=O)(=O)N2CCN(CC(=O)NC(=O)NCc3ccccc3)CC2)c1C", "Potency": "inconclusive [inhibitor, partial curve]"},
      {"smiles": "COc1cnc(-c2ccccc2)c(-c2ccccc2)n1", "Potency": "inconclusive [inhibitor, single point]"},
      {"smiles": "CC(C)Sc1nc(N2CCOCC2)c2c(c1C#N)CC(C)(C)SC2", "Potency": "inconclusive [inhibitor, single point]"},
      {"smiles": "CC(C)(C)c1cc(NC(=O)C2(C)CCN2C(=O)C2(c3ccccc3)CC2)no1", "note": "(stereo unspecified)", "Potency": "inconclusive [inhibitor, single point]"},
      {"smiles": "Cc1cccc(Nc2ncc(NC(=O)c3cccc(F)c3)c(Nc3cccc(C)c3)n2)c1", "Potency": "inconclusive [inhibitor, partial curve, poor fit]"},
      {"smiles": "COC(=O)c1c(NC(=O)/C=C/C(=O)O)sc(Cc2ccccc2)c1C", "Potency": "inconclusive [inhibitor, single point]"},
      {"smiles": "COCCn1c(SCc2cccc([N+](=O)[O-])c2)nc2ccccc2c1=O", "Potency": "inconclusive [inhibitor, partial curve, poor fit]"},
      {"smiles": "CCC(CC)C(=O)Nc1ccc2nc(SCc3ccccc3)sc2c1", "Potency": "inconclusive [inhibitor, partial curve]"},
      {"smiles": "COc1ccc(NC(C)C(=O)Nc2cc(C(F)(F)F)ccc2N2CCOCC2)c(OC)c1", "note": "(stereo unspecified)", "Potency": "inconclusive [inhibitor, single point]"},
      {"smiles": "CCCC(CCC)=NNc1ccc(S(=O)(=O)Nc2ccccc2OC)cc1[N+](=O)[O-]", "Potency": "inconclusive [inhibitor, partial curve]"},
      {"smiles": "Cc1cccc(Nc2nc(N)nc(CN3CCN(c4ccc(F)cc4)CC3)n2)c1", "Potency": "inconclusive [inhibitor, single point]"},
      {"smiles": "O=C(NC(=S)NN1CCOCC1)c1cc(Br)ccc1Cl", "Potency": "inconclusive [inhibitor, single point]"},
      {"smiles": "Cc1ccc(N(C)S(=O)(=O)c2ccc3c(c2)NC(=O)C(C)S3)cc1", "note": "(stereo unspecified)", "Potency": "inconclusive [inhibitor, single point]"},
      {"smiles": "O=C(COC(=O)c1ccccc1NCCO)NCCc1ccccc1", "activity change, negative = inhibition": "inactive: 8%"},
      {"smiles": "COc1ccc(S(=O)(=O)c2c(Nc3c(C)cccc3C)sc(C(=O)c3ccc4c(c3)OCO4)c2N)cc1", "Potency": "inconclusive [inhibitor, full curve, poor fit]"},
      {"smiles": "Cc1ccc(-n2nc3c(=O)n(CC(=O)NC(C)C)nc(C)c3c2C)cc1", "activity change, negative = inhibition": "inactive: 16.8%"},
      {"smiles": "c1ccc2c(C3OCC4(CCCCC4)CO3)cccc2c1", "Potency": "inconclusive [inhibitor, single point]"}
    ]}
  ]
}
